Test results: PubChem BioAssay AID1259407 (Chemical Carcinogenesis Research Information System (CCRIS), 2018)
Not every entry of the source has a single result; some have several. This is not the full list of results. There may be further records. No rule for the calls is given here. The records of an entry repeat one measurement in other runs, samples, wells, individuals or studies. Brackets tell where a record comes from. A, B and so on number the origins entry by entry.

System: CCRIS mutagenicity, Ames/micronucleus/aberration tests
Assay: CCRIS mutagenicity studies
[1] = Test System: AMES SALMONELLA TYPHIMURIUM, Strain/Indicator: TA98, Metabolic Activation: NONE, Method: STANDARD PLATE
[2] = Test System: AMES SALMONELLA TYPHIMURIUM, Strain/Indicator: TA98, Metabolic Activation: RAT, LIVER, S-9, AROCLOR 1254, Method: STANDARD PLATE
[3] = Test System: AMES SALMONELLA TYPHIMURIUM, Strain/Indicator: TA100, Metabolic Activation: NONE, Method: STANDARD PLATE

Row | Structure (SMILES) | mutagenic call [1] | mutagenic call [2] | mutagenic call [3] | further results
1 | CC(=O)Nc1ccc2ccc3ccc(O)c4ccc1c2c34 | inactive; negative [study A, 0.1 to 5 µg/plate] and active; positive [study B, 0.01 to 5 µg/plate] | inactive; negative [study A, 0.1 to 5 µg/plate] and active; positive [study B, 0.01 to 5 µg/plate] |  | 
2 | COc1c(Cl)c(Cl)c(Cl)c(Cl)c1Cl |  |  |  | mutagenic call (Test System: AMES SALMONELLA TYPHIMURIUM, Strain/Indicator: TA98, Metabolic Activation: NONE, Method: PREINCUBATION): active; positive [study A, 100 to 10000 µg/plate] and inactive; negative [study B, 10 to 1000 µg/plate]
3 | CC(C)COS(=O)(=O)c1ccccc1 |  |  | inactive; negative [sample A, 15 to 5000 µg/plate] and active; positive [sample B, 15 to 5000 µg/plate] | mutagenic call (End Point: IN VITRO MICRONUCLEUS, Test System: MOUSE LYMPHOMA L5178Y CELLS, Metabolic Activation: NONE): inactive; negative [sample A, 100 to 1000 µg/mL] and active; positive [sample B, 100 to 1000 µg/mL]; mutagenic call (End Point: IN VITRO MICRONUCLEUS, Test System: MOUSE LYMPHOMA L5178Y CELLS, Metabolic Activation: RAT, LIVER, S-9): inactive; negative [sample A, 100 to 1000 µg/mL] and active; positive [sample B, 100 to 1000 µg/mL]
4 | CC1=CC(=O)c2ccccc2C1=O |  |  |  | mutagenic call (Test System: AMES SALMONELLA TYPHIMURIUM, Strain/Indicator: TA100, Metabolic Activation: NONE, Method: PREINCUBATION): inactive; negative [study A] and active; positive [study B]; mutagenic call (Test System: AMES SALMONELLA TYPHIMURIUM, Strain/Indicator: TA104, Metabolic Activation: NONE, Method: PREINCUBATION): inactive; negative [study A] and active; positive [study B]
5 | O=C(/C=C/c1ccccc1)c1ccc([N+](=O)[O-])cc1 | inactive; negative [study A] and active; positive [study B] | inactive; negative [study A] and active; positive [study B] |  | 
6 | COC(=O)[C@H]1O[C@@H]1c1ccccc1 |  |  | inactive; negative [sample A, 0 to 15000 µg/plate] and active; positive [sample B, 1500 to 3000 µg/plate] | 
